Data taken from the supplement of paper PMC12217912.
The list shows a part of the results. The full chains were built here from the parent and the listed change. Values near 0.05 are background.

B1: TEV protease; numbered along this chain (parent)
chain: MGESLFKGPRDYNPISSSICHLTNESDGHTTSLYGIGFGPFIITNKHLFRRNNGTLVVQSLHGVFKVKDTTTLQQHLVDGRDMIIIRMPKDFPPFPQKLKFREPQREERICLVTTNFQTKSMSSMVSDTSCTFPSGDGIFWKHWIQTKDGQCGSPLVSTRDGFIVGIHSASNFTNTNNYFTSVPKNFMELLTNQEAQQWVSGWRLNADSVLWGGHKVFMVKPEEPFQPVKEATQL

Variants of: B1
Assay: raw area under fraction-flipped curve 0-4 h after induction (AUC4h, not background-subtracted), DNA-recorder readout of cleavage of the substrate (dimensionless); higher = more cleavage of the substrate by the protease variant
Details: temperature: 34 °C; time window: 0-4 h after rhamnose induction
Description: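 In vivo DNA recorder in E. coli TOP10(DE3) ΔrhaA at 34 °C. Each TEVp single-site mutant (parent TEVp 0) is paired with a single-site variant of the 7-mer TEVs (canonical ENLYFQ|S). The substrate sits between flexible linkers in a Bxb1-sfGFP-TEVs-SsrA fusion, so cleavage stabilises Bxb1 and speeds flipping of a recombination array, read by NGS. The value is the raw area under the fraction-flipped curve over 0-4 h after rhamnose induction (AUC4h), with ≥20 reads per time point. It is not background-subtracted; inactive controls average about 0.047.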
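Note: Bxb1 expression induced with 0.2% (w/v) L-rhamnose at OD600 near 0.5, cultures sampled hourly, flipped fraction per protease–substrate barcode pair counted by paired-end Illumina sequencing.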

Variant | area with substrate ENLYAQS | area with substrate ENLYDQS | area with substrate ENLYEQS | area with substrate ENLYGQS | area with substrate ENLYHQS | area with substrate ENLYIQS | area with substrate ENLYKQS | area with substrate ENLYLQS | area with substrate ENLYMQS | area with substrate ENLYNQS | area with substrate ENLYPQS | area with substrate ENLYRQS | area with substrate ENLYSQS | area with substrate ENLYVQS | area with substrate ENLYWQS | area with substrate ENLYYQS | area with substrate ENLYQQS | area with substrate ENLYCQS | area with substrate ENLYTQS
F187E | 0.0424 | 0.0587 | 0.0541 | 0.0571 | 0.0479 | 0.0465 | 0.028 | 0.0574 | 0.0426 | 0.0442 | 0.0492 | 0.0632 | 0.0572 | 0.0542 | 0.0473 | 0.0466 | – | – | –
F187Q | 0.0563 | 0.061 | 0.0342 | – | 0.066 | 0.156 | 0.0527 | – | 0.0592 | 0.0513 | 0.051 | 0.0674 | – | 0.0912 | 0.0573 | 0.0639 | 0.0622 | – | –
A196L | 0.0734 | 0.059 | 0.066 | 0.0599 | 0.0782 | 0.145 | 0.0615 | 0.111 | 0.0834 | 0.0774 | 0.0827 | 0.0571 | 0.0914 | 0.145 | – | 0.0563 | 0.063 | 0.114 | 0.112
Q197K | 0.0511 | 0.0842 | 0.0652 | 0.0543 | 0.0564 | 0.121 | – | 0.0779 | – | 0.0591 | 0.0746 | – | – | 0.148 | 0.0724 | 0.086 | – | – | –
W199H | 0.0472 | 0.062 | 0.0573 | – | 0.0633 | – | 0.0369 | – | 0.0666 | 0.0537 | 0.0656 | – | 0.0655 | 0.049 | 0.0598 | – | 0.0511 | 0.0562 | –
W203Y | 0.0699 | 0.0605 | 0.0627 | – | 0.0622 | – | 0.0589 | – | 0.0759 | 0.0677 | 0.0855 | 0.0658 | 0.059 | 0.0633 | – | 0.0381 | 0.0546 | 0.052 | 0.0622
L205W | 0.0663 | – | 0.0552 | – | 0.0541 | – | – | 0.0652 | – | – | 0.0638 | 0.0643 | 0.0608 | 0.0692 | – | – | 0.0756 | 0.0698 | –
H215D | 0.0535 | 0.0484 | 0.062 | 0.0587 | 0.0622 | 0.0619 | 0.0487 | – | – | 0.0701 | 0.0597 | 0.0596 | – | – | 0.0953 | – | 0.0622 | – | –
H215W | 0.068 | 0.0586 | 0.0648 | 0.064 | 0.0649 | 0.0677 | 0.0411 | 0.0474 | 0.0428 | 0.0675 | 0.0586 | 0.0551 | 0.0591 | 0.0519 | 0.0611 | – | 0.0606 | – | 0.0592
V217Q | 0.182 | 0.0577 | 0.0562 | 0.0543 | – | 0.061 | 0.0529 | 0.0862 | 0.0615 | 0.0538 | – | 0.0553 | 0.0522 | 0.0584 | – | – | 0.0672 | 0.061 | 0.0448
F218P | 0.08 | – | 0.0597 | 0.072 | 0.0559 | – | 0.0734 | – | 0.0601 | – | 0.0521 | 0.0673 | – | 0.0516 | – | – | 0.0676 | – | 0.0605
M219V | 0.0875 | 0.0656 | 0.0665 | 0.0565 | – | 0.0914 | 0.0665 | 0.0346 | 0.107 | 0.0656 | – | 0.0488 | 0.0479 | 0.0885 | – | – | 0.0524 | 0.107 | 0.078
V220I | 0.0716 | 0.0341 | 0.066 | 0.0632 | 0.0653 | – | 0.0548 | – | 0.0885 | – | 0.0832 | – | 0.0746 | 0.107 | – | 0.0997 | – | – | 0.0768
